Data from article PMC4336329 (PLoS ONE, 2015).
About 2,200 (0.71%) of roughly 310,000 compounds showed an effect of 50% or more. The effect is printed as a negative number. Some of the results follow.

What follows are compounds tested against human ether-à-go-go-related gene (hERG) potassium channel (human, UniProt Q12809) (assay: primary screen, population patch clamp on CHO cells stably expressing hERG).
Chain of human ether-à-go-go-related gene (hERG) potassium channel (Q12809 whole entry, looked up): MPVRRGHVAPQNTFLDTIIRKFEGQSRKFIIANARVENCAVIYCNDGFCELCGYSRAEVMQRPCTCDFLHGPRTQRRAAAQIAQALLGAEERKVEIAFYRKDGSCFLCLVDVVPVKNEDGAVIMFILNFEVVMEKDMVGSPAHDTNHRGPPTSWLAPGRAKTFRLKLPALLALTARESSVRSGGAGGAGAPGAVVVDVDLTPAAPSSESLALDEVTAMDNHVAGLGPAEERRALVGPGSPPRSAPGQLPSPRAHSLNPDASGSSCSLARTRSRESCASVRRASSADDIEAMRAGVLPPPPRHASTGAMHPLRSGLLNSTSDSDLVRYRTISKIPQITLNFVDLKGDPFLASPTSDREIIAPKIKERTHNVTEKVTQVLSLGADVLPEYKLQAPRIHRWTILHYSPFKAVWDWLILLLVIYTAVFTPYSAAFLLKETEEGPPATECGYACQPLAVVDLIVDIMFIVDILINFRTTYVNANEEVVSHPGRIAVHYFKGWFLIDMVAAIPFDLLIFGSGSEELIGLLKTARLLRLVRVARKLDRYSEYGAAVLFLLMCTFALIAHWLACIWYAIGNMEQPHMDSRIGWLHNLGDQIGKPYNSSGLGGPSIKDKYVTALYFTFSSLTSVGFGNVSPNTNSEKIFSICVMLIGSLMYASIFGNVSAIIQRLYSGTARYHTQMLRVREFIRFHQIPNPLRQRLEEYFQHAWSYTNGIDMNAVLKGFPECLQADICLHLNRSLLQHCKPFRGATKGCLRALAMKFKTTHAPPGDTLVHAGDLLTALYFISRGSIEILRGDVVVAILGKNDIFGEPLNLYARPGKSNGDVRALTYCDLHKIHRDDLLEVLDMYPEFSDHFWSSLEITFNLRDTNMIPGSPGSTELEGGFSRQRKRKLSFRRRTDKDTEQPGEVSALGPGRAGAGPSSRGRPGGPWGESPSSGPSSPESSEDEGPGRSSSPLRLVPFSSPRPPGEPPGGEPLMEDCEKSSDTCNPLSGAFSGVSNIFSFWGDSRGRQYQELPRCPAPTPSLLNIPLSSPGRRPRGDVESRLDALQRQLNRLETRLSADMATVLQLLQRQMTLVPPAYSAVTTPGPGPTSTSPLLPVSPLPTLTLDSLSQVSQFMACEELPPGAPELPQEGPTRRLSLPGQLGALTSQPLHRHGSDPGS

Row | Structure (SMILES) | hERG current change (%, negative = inhibition) at 1uM
1 | Cn1c(=O)oc2cc(S(=O)(=O)Nc3ccc4c(c3)OCO4)ccc21 | 9.9%
2 | Fc1ccc(OCc2nc3ccccc3s2)cc1 | 12%
3 | CCCc1ncc(CN2CCCCC2C(=O)Nc2ccc(Oc3ccccc3)nc2)cn1 (stereo not drawn) | 12.1%
4 | O=C(Cn1nc(C(F)(F)F)cc1C1CC1)Nc1ccccc1F | 16.1%
5 | O=C(NCCN1CCCC1)c1ccc(CS(=O)(=O)c2c(Cl)cccc2Cl)o1 | -20.3%
6 | Cc1nnc2ccc(-c3ccc(NS(=O)(=O)c4ccc(Cl)s4)cc3)nn12 | 7.12%
7 | C/C(=N\NC(=O)c1c[nH]c2ccccc12)c1ccc(C)o1 | 1.87%
8 | COCc1nc(-c2ccc(-c3ccccc3)nc2OC)no1 | 10.1%
9 | COc1ccc2oc(C(=O)N3CCc4ccccc43)c(C)c2c1 | 16.2%
10 | Cc1ccc(C)c(NC(=S)NC23CN4CN(CN(C4)C2)C3)c1 | 7.99%
11 | CCc1nnc(SCC(=O)Nc2ccccc2)nc1CC | -0.373%
12 | O=C(Nc1ccccc1-c1ccccc1NC(=O)c1ccco1)c1ccco1 | 10.8%
13 | Cc1c(NC(=O)c2cccc(NC(=O)Cc3ccccc3F)c2)c(=O)n(-c2ccccc2)n1C | 12.1%
14 | Cc1c(OCC(=O)Nc2cccnc2)ccc2c3c(c(=O)oc12)CCC3 | 20.4%
15 | COc1ccccc1NC1=C(N2CCCCC2)C(=O)c2ccccc2C1=O | -1.15%
16 | CCOC(=O)N1CCN(C(=O)COC(=O)C2CCN(S(=O)(=O)c3c(Cl)cccc3Cl)CC2)CC1 | 4.61%
17 | CCOC(=O)c1sc(N)nc1C(C)(C)C | 7.8%
18 | Cc1ccc(C2(C)NC(=O)N(CC(=O)Nc3ccc(S(=O)(=O)Nc4nccs4)cc3)C2=O)cc1 (stereo not drawn) | 11.1%
19 | COc1cccc(NC(=O)CSc2nnc(Cc3ccc(C)cc3)c(=O)n2N)c1 | -11.3%
20 | CC1C(O)=C(c2nc3ccccc3[nH]2)C(=N)N1c1ccccc1 (stereo not drawn) | -8.29%
21 | COc1cc(OC)c2c(-c3ccccc3)cc(=O)oc2c1C(CC(=O)N1CCOCC1)c1ccc2c(c1)OCO2 (stereo not drawn) | 11.5%
22 | CN(C)c1cccc(C(=O)OCC(=O)NC2CCCC2)c1 | 17.6%
23 | Cc1cccnc1NC(=O)Nc1cccc(Cl)c1 | 6.83%
24 | COc1cc(C(=O)N2CCN(C(=O)C3CCCO3)CC2)cc(OC)c1OC (stereo not drawn) | 3.81%
